B1: CPEB3 Ribozyme (parent)
chain: UAACAGGGGGCCACAGCAGAAGCGUUCACGUCGCAGCCCCUGUCAGAUUCUGGUGAAUCUGCGAAUUCUGCUGUAUAUCUC

The source gives no read counts; variants with many changes may rest on few reads.

These results are taken from the RNAGym collection of RNA variant scans (doi:10.1093/nar/gkz1192).

This data set covers variants of B1. Kind of data set: self-cleavage, relative activity (ratio to wild type); higher = more cleavage; in vitro, sequencing. Summed up: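 Relative activity was defined as the cleaved/total read fraction for a variant divided by the same fraction for the unmutated ribozyme. CPEB3 self-cleaving ribozyme libraries were made by rounds of error-prone PCR, barcoded, and transcribed in vitro with T7 RNA polymerase for 5 hours at 37°C, and cleavage ran through transcription plus a 15 min DNase I step before EDTA. Illumina sequencing of template-switched reverse transcripts gave the reads, and DNA sequencing mapped the barcodes. Averages come from three batches, using variants with at least 5 reads.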
Consider G6A A15U C29U A47G U67C, for which the self-cleavage amounted to 0.08. Next, A5U C27A U31C A35G A65U U69C U76C: 0.08. On to A5U U43G U51A U58C, for which the self-cleavage came out at 0.04. For A5U U48A U67A, the self-cleavage was 0.54. The value for G6A G30A U72G was 0.09; that for G6A U31C A45G A64G A65G U66C U80C was 0; that for G6A U43C G52A was 0.14. Next, G6A A13U U43C U69A: 0.12; A5U U25C U43C U69C: 0.12; A5U A20U A28U U31C U66C: 0.25. Next, A5U U49G C62U C68A: 0.25.

Turning to A5U G8A A28U U69C, the self-cleavage was 0.08. Next, G6A U43C U54A A56G: 0.25; G6A U60C U69C: 0.17; A5U A28G U69A: 0.31. The value for A5U U25A G33A A45G G46U U51C U58C was 0.17; that for A5U A45U U49A U51A C68A U76A was 0.06; that for A5U G30A U51C U72C was 0.15. Next, G6A A57U A64U U72C: 0.13; A5U C29U U74C A77U: 0.99. Turning to A5U G9A U43A U51A, the self-cleavage is 0.22. As for A5U A45G U48C A65G U80A, the self-cleavage is 0.47. For the variant A5U C11G A28C U78C, the self-cleavage is 0.35.

With G6A A20U C40U U80C, the self-cleavage came out at 0.22. As to G6A C14A U48C U51A A64U U80A, the self-cleavage amounted to 0.05.

With G6A G10C A20U U26C C29U G36C A75C, the self-cleavage was determined as 0.05. As for A5U U26C A64U U69C, the self-cleavage stood at 0.14. Next, A5U G22C G70C: 0.21. Next, A5U G8U G9A A45U C62G: 0.31; A5U A20G U31C A47G U72C U80A: 0.96. Next, A5U A35G A45G A56U A77G U80C: 1.12. Take A5U U69A U78C: the self-cleavage was 0.72. Next, A5U G16A U31C: 0.4; G6A A18U U25C A35G A45C: 0.04.

A5U C11U A15U U25C U49A: the self-cleavage is 0.1. With A5U C27U U49C, the self-cleavage amounted to 0.38. Next, G6A C11A A13U A20U G33A U41C U49C: 0.04; G6A A13U A18G U25C U31A U43G A45U: 0.04.

With A5U U51A U54C, the self-cleavage is 1.22. The value for A5U U26C A47U U54A A65G was 0.13. The value for A5U G24A A28U U51A A65G U72C was 0.1; that for G6A C12A A15G A45G was 0.07. As for G6A A18G U25C U43A U49C, the self-cleavage is 0.06. The value for G6A A21G U41A A47U U74C A75C was 0.23. The value for G6A A18G A20U was 0.33; that for A5U U60A U80A was 0.98. Next, G6A U26C U31C U51G: 0.27; A5U C29A U41C: 0.36. Take A5U G8C C12A C59U U72A: the self-cleavage was 0.08. Next, A5U U41C U67C U72C: 0.41.

In the case of A5U C29A U72G, the self-cleavage is 0.58. G6A U31A U43A U51C: the self-cleavage amounted to 0.29. As for A5U U26C A45C A64U U67C, the self-cleavage is 0.21. In the case of A5U C29U U31C A35U U72A U80C, the self-cleavage turned out to be 0.3.

For A5U U25C A35G A45G U76C, the self-cleavage came out at 0.46.

As to A5U G7A A18U U26C A35G U43C U54C, the self-cleavage is 0.35. Next, A5U A28G C79A: 0.99. Next, A5U U49C U51C: 0.32. With G6A A18G A47U A57U U80A, the self-cleavage is 0.05. Next, A5U C11A A18U A20G A35G A56G U80C: 0.14; A5U U74A U80A: 1.29; A5U U31C U43C U74C U80G: 0.7.

Turning to G6U A18G U48C U80A, the self-cleavage is 0.41. The value for A5U A64G U69C was 0.59. The value for A5U A28G U41A A45G was 0.09; that for G6A G19A G46A U69C was 0.27. Turning to G6A A21G C39A, the self-cleavage came to 0.31. The value for G6A U31C C32U U49C was 0.17; that for A5U U54A U69C was 0.8; that for A5U A20G G24U A28G U69C A77U was 0.09.

For the variant A5U C29U U41C A47G A56U U76A, the self-cleavage amounted to 0.09. With A5U U26C A28G G30A U60C, the self-cleavage turned out to be 0.3. Next, A5U U26C U31A A35G A45G A57G G61A: 0.22; A5U A21G U51C: 0.78; G6A U26C A56G U60C U72A: 0.52. Next, A5U G22A A28G: 0.37; A5U C12A G36A U72A: 0.73. With G6A U26C U43A A56U, the self-cleavage is 0.07. Next, A5U G61C U76C: 0.71; A5U U43C U69A U80C: 0.29. With G6U A13C A15U U43C U51C, the self-cleavage came to 0.09. The value for A5U U69A A75U was 0.87; that for A5U U67A A77G was 0.54.

For A5U U25A A28U U54C U60A A75U, the self-cleavage came to 0.08. The value for G6A A20G C38U A64C U67A was 0.1; that for A5U U49A U67C was 0.61. Next, G6A A13G C44A U49C A64U A65G U69A: 0.09; A5U A20U U41A U67A: 0.32. Next, G6A U26A U60A C62U: 0.05; A5U U49C A57G U58A A64C U80C: 0.15.

In the case of A5U C27G U78C, the self-cleavage was 0.25. The value for A5U U66G U67C was 0.33; that for G6A U25C U43G U48C was 0.21. The value for G6A U48G A65G U76A U78A was 0.04. The value for A5U C17U U43C was 0.47. G6A U67C U72A: the self-cleavage came out at 0.14.

For A5U G22A A64G, the self-cleavage is 0.53.

On to G6A G53U U60A, for which the self-cleavage was 0.08. The value for G6C G19U G33A G36A C38U U54A U60A was 0.05.

G6A C12U A15G A45G U72C: the self-cleavage amounted to 0.28. Next, A5U A35U A64G: 0.62. Take A5U U76C A77G: the self-cleavage is 0.95. G6A U49G U54C: the self-cleavage amounted to 0.17. Turning to G6A U41A A45U A64U U72C, the self-cleavage was determined as 0.06.

Turning to G6A C11A U26C A28G U31A U51C U72C, the self-cleavage turned out to be 0. Next, G6A A18U U31G U66C U72C: 0.06; A5U G8U U41A U67C U72A A77G: 0.08. The value for A5U G36C A47U U54C C62U was 0.26; that for A5U A28G U31A A57G U69A U74C was 0.11. Take G6A A21U A28G U41G G52U: the self-cleavage is 0.05. The value for A5U G10A A18U U72A was 0.32; that for A5U A45U A64G was 0.47; that for G6C A18G A56U U80C was 0.36. The value for G6A A15G A65G U78C U80C was 0.07; that for G6A U49C A64C was 0.15. As for G6A A21G A56G G73A, the self-cleavage amounted to 0.16. On to A5U U49A U72A U78A, for which the self-cleavage turned out to be 0.69. The value for G6A A15U G30A A64G C68U G70A U80C was 0.05; that for G6C A28G U31A U41G U67C U74A was 0.2; that for G6A A18U U41G U48C U69C was 0.15. The value for A5U U54C U60C was 0.53; that for A5U A20U U54A G61A U78C was 0.32. The value for A5U A20G U31C A35U G53A U54G A64U was 0.18. Consider A5U U41A U54C A77U, for which the self-cleavage turned out to be 0.58. Next, G6A U26C C40A U48C: 0.06; A5U U48G U72C: 0.51; A5U A64G U78C: 0.87. As to A5U U41A U60A A64G, the self-cleavage worked out at 0.12. The value for G6A A56G U66C was 0.45. With A5U A28G C39A U54C U60A U74C, the self-cleavage was 0.23. As to A5U C44A A64U, the self-cleavage came out at 0.16. For the variant A5U G7C G8A A20G U67C G70C, the self-cleavage turned out to be 0.26. The value for A5U G9C U25A U76G was 0.06; that for G6A A13G A20G A47U was 0.24.

Regarding G6A U43A A45G A57U C79A, the self-cleavage was determined as 0.05.

As for A5U U25C A65G, the self-cleavage turned out to be 0.35. Next, G6U A18G U49A G61A U69C: 0.08; A5U U54C G61A U72C U80G: 0.83; G6A C12G U25C A47G A64U: 0.07.

Consider A5U U51A G53C G61C U66C U69A, for which the self-cleavage stood at 0.58.

Regarding A5U U31A G36U U41A A45U C68U, the self-cleavage came out at 0.17.

Regarding A5U G22C A28G G42A, the self-cleavage is 0.28.

For the variant A5U U26C U60C, the self-cleavage stood at 0.43. The value for G6U A13G G33U A47G was 0.22. Next, G6A U25C U48A U49C: 0.07; G6A A18G A65G U76C: 0.06.

Regarding A5U C11U A15U U26C U67A, the self-cleavage came out at 0.2.

With A5U C14A G19A U43C U60A, the self-cleavage turned out to be 0.07. Next, G6A U31C C37U: 0.19; G6A A15G C40U A45G U48C U60A: 0.07; G6U A18C U43C A65G: 0.08. The value for A5U U41C U48C G52A U67C was 0.41; that for G6A A64U C81U was 0.37; that for G6C U26C U31C C40U C44A U48C was 0.26. Next, G6A A15U A21G A64U U78C: 0.07; G6A A28U A64G: 0.14.

A5U A28C U41G A65U U74C U80A: the self-cleavage was determined as 0.14.

With A5U U66C A77G, the self-cleavage was 0.44.

For the variant G6A C23U G61A, the self-cleavage came to 0.19. The value for G6A U25C C32U was 0.39; that for G6A G19U A20G U41A was 0.24; that for G6A A21G U48C U60C was 0.38. The value for G6A U51C G52C was 0.4; that for A5U U66C U72A A75U was 0.27. The value for G6C U31A U41G A57G U67C was 0.12; that for G6A C11G A15G U51C A56G U76G U80C was 0.67; that for A5U U25A A56U was 0.32.
